According to PMC5681660, “Reduced hepatitis B and D viral entry using clinically applied drugs as novel inhibitors of the bile acid transporter NTCP” (Scientific Reports, 2017):

How the values were obtained:
human NTCP [1] = target: T1, human NTCP (Homo sapiens, UniProt Q14973); experiment: Screening taurocholate uptake assay (96-well, [14C]taurocholate, 10 µM drug); details: for remaining activity at 10 µM: 10 min, read-out: %NTCP activity
T1 sequence (Q14973 1-349): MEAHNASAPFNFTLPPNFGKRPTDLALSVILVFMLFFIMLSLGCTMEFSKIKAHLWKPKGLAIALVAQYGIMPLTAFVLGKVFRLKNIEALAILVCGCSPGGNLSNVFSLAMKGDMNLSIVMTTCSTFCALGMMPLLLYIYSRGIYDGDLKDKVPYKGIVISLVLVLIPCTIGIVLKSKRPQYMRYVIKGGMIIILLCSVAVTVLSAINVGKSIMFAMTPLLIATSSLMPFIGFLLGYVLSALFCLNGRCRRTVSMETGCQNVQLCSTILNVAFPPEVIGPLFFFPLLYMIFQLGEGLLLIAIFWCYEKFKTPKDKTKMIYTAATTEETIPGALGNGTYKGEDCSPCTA

human NTCP [2] = target: T1, human NTCP; experiment: Screening fluorescent competitive Myrcludex B-FITC binding assay (96-well, 10 µM drug)
[3] = Prestwick library screen, 10 µM drug, [14C]taurocholate uptake
[4] = Prestwick library screen, 10 µM drug, Myrcludex B-FITC binding
[5] = screen, 10 µM drug, Myrcludex B-FITC binding

Row | SMILES | remaining activity at 10 µM (human NTCP [1]) [%] | remaining activity at 10 µM (human NTCP [2]; 0.5 h, read-out: %NTCP binding) [%] | also measured
1 | O=C(CCCN1CC=C(n2c(=O)[nH]c3ccccc32)CC1)c1ccc(F)cc1 [Droperidol] | 48.7 | 68.3 | 
2 | CC(C)NC[C@@H](O)c1ccc(O)c(O)c1.O=C(O)C(O)C(O)C(=O)O [(+)-Isoproterenol (+)-bitartrate salt] |  |  | %NTCP activity (human NTCP [1]; Prestwick library screen, [14C]taurocholate uptake, 10 µM drug): 65.54%; %NTCP binding (human NTCP [2]; Prestwick library screen, Myrcludex B-FITC binding, 10 µM drug): 118.941%
3 | O=C(O)c1ccccc1C(=O)Nc1ccc(S(=O)(=O)Nc2nccs2)cc1 [Phthalylsulfathiazole] | 108 | 89.4 | 
4 | C=CCC1(CC(C)C)C(=O)NC(=O)NC1=O [Butalbital] | 27 | 74.4 | 
5 | NC[C@H]1O[C@H](O[C@H]2[C@H](O[C@@H]3O[C@H](CO)[C@@H](O)[C@H]3O)[C@@H](O)[C@H](N)C[C@@H]2N)[C@H](N)[C@@H](O)[C@@H]1O.O=S(=O)(O)O [Ribostamycin sulfate salt] |  |  | %NTCP activity (human NTCP [1]; [3]): 93.127%; %NTCP binding (human NTCP [2]; [4]): 83.6918%
6 | COC(=O)N/N=C/c1c[n+]([O-])c2ccccc2[n+]1[O-] [Carbadox] | 128 | 82.4 | 
7 | C[C@@]1(O)CCOC(=O)C1 [Mevalonic-D, L acid lactone] |  |  | %NTCP activity (human NTCP [1]; [3]): 104.706%; %NTCP binding (human NTCP [2]; [4]): 107.782%
8 | Cl.O=c1[nH]oc2c1CCNC2 [THIP Hydrochloride] |  |  | %NTCP activity (human NTCP [1]): 85.8813%; %NTCP binding (human NTCP [2]; [5]): 94.9831%
9 | C[C@]12CC[C@H](O)C[C@H]1CC[C@@H]1[C@@H]2C[C@@H](O)[C@]2(C)[C@@H](C3=CC(=O)OC3)CC[C@]12O [Digoxigenin] | 66.9 |  | remaining activity at 10 µM (human NTCP [2]; 0.5 h, read-out: %NTCP binding, screen, 10 µM drug, Myrcludex B-FITC binding): 90%
10 | NS(=O)(=O)Cc1noc2ccccc12 [Zonisamide] | 124 | 81.3 | 
11 | NNC(=O)c1ccncc1 [Isoniazid] | 106 | 91.3 | 
12 | CCC1=C[C@@H]2CN3CCc4c([nH]c5ccccc45)[C@@](C(=O)OC)(C2)[C@@H]13 [Catharanthine] |  |  | %NTCP activity (human NTCP [1]): 87.0224%; %NTCP binding (human NTCP [2]; [5]): 75.083%
13 | CC(=O)O[C@]1(C(C)=O)CC[C@H]2[C@@H]3C=C(C)C4=CC(=O)CC[C@@H]4[C@H]3CC[C@@]21C [Nomegestrol acetate] | 69.7 | 85.4 | 
14 | CO[C@@H]1[C@@H](OC(N)=O)[C@@H](O)[C@H](Oc2ccc3c([O-])c(NC(=O)c4ccc(O)c(CC=C(C)C)c4)c(=O)oc3c2C)OC1(C)C.[Na+] [Novobiocin sodium salt] |  |  | %NTCP activity (human NTCP [1]; [3]): 108.777%; %NTCP binding (human NTCP [2]; [4]): 115.783%
15 | CCN(CC)C(=O)/C(C#N)=C/c1cc(O)c(O)c([N+](=O)[O-])c1 [Entacapone] | 116 | 76.3 | 
16 | CCCCN(CCCC)CCCOC(=O)c1ccc(N)cc1 [Butacaine] | 79.9 | 111 | 
17 | CCOC(=O)C1=C[C@]2(CC)CCCN3CCc4c(n1c1ccccc41)[C@@H]32 [Vinpocetine] | 70.9 | 72.2 | 
18 | CCOC1O[C@H]([C@@H](COCc2ccccc2)OCc2ccccc2)[C@H](OCc2ccccc2)[C@H]1O (some centres unmarked) [Tribenoside] | 21.9 | 79.1 | 
19 | CC(C)NCC(O)c1ccc(O)c(O)c1.Cl (single isomer, unassigned; (-)) [(-)-Isoproterenol hydrochloride] |  |  | %NTCP activity (human NTCP [1]; [3]): 140.466%; %NTCP binding (human NTCP [2]; [4]): 95.4986%
20 | CN1[C@@H]2CC[C@H]1C[C@@H](OC1c3ccccc3CCc3ccccc31)C2.O=C(O)CC(O)(CC(=O)O)C(=O)O [Deptropine citrate] |  |  | %NTCP activity (human NTCP [1]): 115.378%; %NTCP binding (human NTCP [2]; [4]): 87.3815%
21 | COc1ccc2c3c1O[C@H]1C[C@@H](O)C=C[C@@]31CCN(C)C2 [Galanthamine hydrobromide] | 118 |  | remaining activity at 10 µM (human NTCP [2]; 0.5 h, read-out: %NTCP binding, Prestwick library screen, Myrcludex B-FITC binding, 10 µM drug): 86.8%
22 | Cc1cc(C(C)(C)C)c(O)c(C)c1CC1=NCCN1 [Oxymetazoline hydrochloride] | 90.6 | 77.4 | 

Structures can show the parent of a compound that is named as a salt. Where two headings read alike, the source gives them in different places.
